The results in this text go back to paper PMC6212790.

Some of the results follow. At the low end of the ranking the order means little.

This experiment has as its target T1, GST-Rok-C97-191 (UniProt O34857).
T1 sequence: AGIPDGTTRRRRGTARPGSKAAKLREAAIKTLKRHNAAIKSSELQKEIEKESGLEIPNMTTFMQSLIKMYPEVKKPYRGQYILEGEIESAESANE
The experiment can be described thus: protein binding microarray.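 Also: rank score from −0.5 (least bound) to 0.5 (best bound).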 The following applies: Rok is a gene silencer of Bacillus subtilis; high values mean tight binding; most listed sequences are background and not binding sites; double strand, one strand shown.
GAGGTCGC returned a binding signal of -0.134 E-score.
Then CCTCAAAG, with -0.109 E-score; and ATACGAAT, with 0.17 E-score; and CTGGTCAC, with -0.286 E-score.
For AGCGCGTG the value was -0.0766 E-score.
For TGAGCCCA the value was -0.168 E-score; for CCTATATC, 0.0424 E-score; for TCAGTTAA, 0.249 E-score.
In the case of CATCTATC, the binding signal was determined as 0.201 E-score.
For the sequence CTGGCCAG, the binding signal was -0.116 E-score.
For ATCGATGC the value was -0.00344 E-score.
For GATTTCGA the value was 0.12 E-score.
Turning to CGGACGCC, the binding signal was -0.19 E-score.
Then ATTTTCAG, with 0.139 E-score; and TCATAAAA, with 0.247 E-score; and CACGCCAC, with -0.134 E-score.
For ACAGTCGT the value was -0.144 E-score; for CTGTTCAC, -0.0918 E-score; for ACGACAAA, -0.00941 E-score.
For GAGCGAAA, the binding signal is -0.0321 E-score.
The sequence CCTCGTAC had a binding signal of -0.195 E-score.
Sequence GATGACAA registered a binding signal of 0.0961 E-score.
Regarding GATATCTA, the binding signal was 0.349 E-score.
For CTACGGAC, the binding signal came out at 0.00996 E-score.
Then CCATGTAA, with 0.197 E-score; and CCAAAGGG, with -0.296 E-score.
For CGTCAACC the value was -0.182 E-score.
Then GCATGGGC, with -0.148 E-score; and AGATATAC, with 0.221 E-score.
In the case of AACACTGG, the binding signal is -0.223 E-score.
Then TATAGGCA, with 0.122 E-score; and AGATTATG, with 0.0174 E-score; and CCTGGGAC, with -0.234 E-score.
Then GGCAGATA, with -0.104 E-score.
Sequence ACTAAGCG gave a binding signal of -0.208 E-score.
For ATAAAACG the value was 0.145 E-score; for GGTGCGTA, -0.145 E-score.
Then ACATGCAC, with -0.00337 E-score.
ATTCTTCG showed a binding signal of 0.121 E-score.
Then CTCGACGA, with -0.162 E-score; and GGCCTAAA, with 0.0804 E-score; and ATCAAATA, with 0.253 E-score.
Consider TCCCGCCA, for which the binding signal is -0.174 E-score.
Then CTCGAAGC, with -0.3 E-score; and ATTGATTC, with 0.0769 E-score.
CGAAGTAG displayed a binding signal of 0.178 E-score.
For ATACTCGA the value was 0.0581 E-score; for GAGGCCGA, -0.261 E-score.
On to ATATAAAC, for which the binding signal came to 0.33 E-score.
Sequence AGACAGCA showed a binding signal of -0.162 E-score.
For AATGCATG the value was -0.0091 E-score; for AATCTGGG, -0.0558 E-score; for ATCGAAGA, -0.0976 E-score.
For AGATCAGC, the binding signal is -0.131 E-score.
The sequence CTAAGAAC registered a binding signal of -0.119 E-score.
For ATCTTCGC the value was 0.0663 E-score.
Then TATGACGA, with 0.0683 E-score; and AATGTATC, with 0.187 E-score; and CTAATGTC, with -0.0106 E-score.
For AGGCGGGG the value was -0.355 E-score; for AAGTTCGA, 0.212 E-score.
Turning to GCATAGCC, the binding signal was found to be 0.0124 E-score.
Then AGACATGA, with -0.06 E-score; and AGTCGGTA, with 0.234 E-score; and AGAGCCGC, with -0.24 E-score.
For the sequence AGGGCAGC, the binding signal is -0.373 E-score.
Take CAGCAGCC: the binding signal is -0.253 E-score.
In turn, CAAGTACC came in with a binding signal of 0.181 E-score.
Then CTCGCTAA, with -0.0252 E-score.
For AAGATTGT the value was 0.117 E-score; for ATCTAATC, 0.295 E-score.
Then AGAAACAC, with 0.0474 E-score; and CTCCTAGA, with 0.0946 E-score.
As for CAACTTGA, the binding signal turned out to be 0.0158 E-score.
Then AAATAAAG, with 0.139 E-score; and CGTCTGCC, with -0.352 E-score.
As to GCATCAGC, the binding signal was 0.00667 E-score.
Then GTGCTTAA, with 0.0496 E-score.
For ATAGCAAA the value was 0.198 E-score; for CACATACC, 0.242 E-score; for GCCAATTA, 0.0747 E-score.
Then GCTAATAC, with 0.28 E-score; and ACGGTATG, with 0.136 E-score; and GGTATTTA, with 0.342 E-score.
CCTGGCTC registered a binding signal of -0.282 E-score.
Then TAAAACTA, with 0.334 E-score; and GAGTTCCC, with -0.111 E-score.
The sequence GGCTTCAC yielded a binding signal of -0.253 E-score.
Sequence AAGCTCGT yielded a binding signal of -0.196 E-score.
CATCCCCG: the binding signal is -0.113 E-score.
Then ATATATCG, with 0.366 E-score.
For CGATTCTC the value was 0.0356 E-score; for CTGGCACC, -0.215 E-score; for GGCAGGAA, 0.121 E-score.
For CCCGAGGC the value was -0.134 E-score; for AACAACTC, 0.0751 E-score.
Consider AACACGAA, for which the binding signal is -0.00671 E-score.
Then CCATTCGC, with -0.108 E-score; and GATTTCAA, with 0.0221 E-score.
For CCACCTGA the value was -0.268 E-score.
Then AGTTTAAT, with 0.112 E-score.
In turn, AAAGATTG gave a binding signal of 0.105 E-score.
For GAGACAAC the value was -0.0419 E-score.
CACACGGC: the binding signal is -0.207 E-score.
Then CTAAGCAC, with 0.0468 E-score.
For AAATGGTA the value was 0.304 E-score; for AGAACTAT, 0.268 E-score.
Then AATTACGC, with 0.134 E-score; and ACCTCAAT, with 0.0517 E-score; and TAACGGCA, with -0.0744 E-score.
CTGCTTGA: the binding signal is -0.175 E-score.
For ATTCACAC the value was -0.000693 E-score.
For ATGCTTGC the value was -0.196 E-score.
Then CTCTAACC, with -0.1 E-score.
The sequence AACTTATA gave a binding signal of 0.345 E-score.
Then ACGCTTGA, with 0.00298 E-score; and CCAATGGG, with -0.0528 E-score.
For CCGGTGCC the value was -0.203 E-score; for CATCGACC, -0.122 E-score; for GGGTATAA, 0.284 E-score.
Then AAAAAACC, with 0.127 E-score.
Take ATAGCAAC: the binding signal was 0.227 E-score.
Then AGCGCGGA, with -0.153 E-score; and CCCTTGCG, with -0.329 E-score.
For AATATAAG the value was 0.26 E-score; for CTCACGCC, -0.239 E-score; for ATTTCAGA, 0.184 E-score.
For AATTGAGT the value was 0.0803 E-score; for ACTTTACA, 0.138 E-score; for CCCTCATC, -0.104 E-score.
Sequence CTAGATAC registered a binding signal of 0.204 E-score.
In turn, AGGTCGTG came in with a binding signal of -0.157 E-score.
Then CACCGCAC, with -0.164 E-score.
The sequence AGACTTGC yielded a binding signal of -0.0835 E-score.
In turn, AGAGTCTG came in with a binding signal of -0.116 E-score.
For TGGGTACA, the binding signal is -0.0341 E-score.
Then ATAGGATG, with 0.153 E-score; and TAATCAGA, with -0.0111 E-score; and CGTTACAG, with 0.237 E-score.
Then CTTTAAGA, with -0.0814 E-score; and GACCCACC, with -0.13 E-score; and ACGGTGAG, with -0.188 E-score.
For GAGGCCCA the value was -0.341 E-score; for CGCCAGGC, -0.152 E-score; for ACTCACGG, 0.0645 E-score.
Turning to AACGTACG, the binding signal was 0.175 E-score.
CGCCATGA showed a binding signal of -0.312 E-score.
For GAAAACCA the value was -0.143 E-score; for AGCATGAG, 0.0613 E-score.
For ATAGACAT the value was 0.0544 E-score; for ATCGTGCA, -0.0632 E-score; for CCTTATTC, -0.0117 E-score.
For CAAACCAA the value was 0.0242 E-score; for CACCTGGA, -0.0965 E-score; for CCGGGTCG, -0.287 E-score.
The sequence GGTTTTAA displayed a binding signal of -0.0897 E-score.
For CTTAGCGA the value was 0.0126 E-score; for AACGATAA, 0.194 E-score.
Sequence TCAAACCA returned a binding signal of -0.163 E-score.
For GGCGCATA the value was -0.0492 E-score; for AAGGCACG, -0.127 E-score; for AGAAACAG, 0.171 E-score.
For TCCGCCGA the value was -0.185 E-score; for ACCCAGCA, -0.195 E-score.
For ATTCAGAA the value was -0.017 E-score; for CGATCGGA, 0.18 E-score; for ATCGCCCC, -0.299 E-score.
On to ACAACCAC, for which the binding signal was -0.126 E-score.
In turn, GCACGTAC gave a binding signal of -0.0143 E-score.
For AGTAGTGC the value was 0.12 E-score.
Take ACTAATTA: the binding signal was 0.444 E-score.
In the case of GAGAACGC, the binding signal was -0.129 E-score.
For GCACAACA the value was -0.00183 E-score; for ATTATCAG, 0.276 E-score.
Sequence GTCCGTTA registered a binding signal of -0.204 E-score.
The sequence TACCGACA gave a binding signal of 0.084 E-score.
AGTCCTAC had a binding signal of -0.0776 E-score.
For GATAAGAC the value was 0.14 E-score; for TACCTATA, 0.375 E-score.
Then CACCATCC, with -0.174 E-score; and ATAAAGCC, with -0.0227 E-score.
CGAATACC returned a binding signal of 0.175 E-score.
CCGGGTCC registered a binding signal of -0.172 E-score.
The sequence CGCATAGA returned a binding signal of -0.163 E-score.
For CTTTTACC the value was 0.149 E-score.
For AATAATCG the value was 0.061 E-score; for GTTCAGGA, -0.0368 E-score.
For CTACCGGC the value was 0.0318 E-score.
For CTAACGAC, the binding signal is 0.00996 E-score.
Then CTGGTCCC, with -0.117 E-score.
As for ACTAAGTA, the binding signal was determined as 0.319 E-score.
Then AAGTGTTA, with 0.21 E-score; and TCGCAGAA, with -0.0616 E-score; and GGCCTTGA, with -0.262 E-score.
AGGCTGAA had a binding signal of -0.136 E-score.
CGAATAGC had a binding signal of -0.266 E-score.
For GGTTGGGA the value was 0.103 E-score; for AGATACGG, -0.0102 E-score.
AGGACCCG registered a binding signal of -0.0941 E-score.
Then AGCCGCAT, with -0.0834 E-score; and AATCGTCC, with -0.11 E-score; and ACGTCTCT, with -0.0426 E-score.
Consider AAGCAAAT, for which the binding signal was 0.0876 E-score.
For ACGCTCGA the value was -0.18 E-score.
CAAAGTAG returned a binding signal of 0.194 E-score.
CATTTACA gave a binding signal of 0.277 E-score.
Then CACTCGGC, with -0.164 E-score.
Then ATCGACAC, with -0.0117 E-score; and GACCCATC, with -0.114 E-score; and TCCCTAAA, with -0.186 E-score.
Then GCGAATAA, with -0.031 E-score; and ACTTGACC, with -0.0191 E-score; and TCGAGAAA, with 0.0918 E-score.
With CCTTTATC, the binding signal is -0.0868 E-score.
Then ACTGAGTG, with 0.0937 E-score; and GAGTCTGA, with -0.0859 E-score.
The sequence GGACAAGA registered a binding signal of -0.148 E-score.
Then TAGTATCA, with 0.174 E-score.
For GGTAAATA the value was 0.318 E-score.
